In PubChem BioAssay AID504332 (National Center for Advancing Translational Sciences (NCATS), 2011):
The whole screen tested about 350,000 compounds, of which about 31,000 (8.9%) were called active. Inconclusive means that the source gave no clear call. Such entries were picked first, then a sample of the others. The call rests on the fitted dose curve; in most records, active means well fitted inhibition curve with a large enough effect; inconclusive means small, poorly fitted or top-dose-only effect; inactive means no such curve, though single readings can be large or run the other way. Where the call is inconclusive, the potency comes from a doubtful curve fit.

Each molecule was assayed against Histone-lysine N-methyltransferase EHMT2 (Homo sapiens) (UniProt Q96KQ7) (assay: qHTS Assay for Inhibitors of Histone Lysine Methyltransferase G9a). Details: G9a H3K9 monomethylation, AlphaScreen, 2 h; activity, negative = inhibition: at 59 µM (top of the series) unless noted.
Sequence of UniProt Q96KQ7 (Q96KQ7 whole entry, looked up): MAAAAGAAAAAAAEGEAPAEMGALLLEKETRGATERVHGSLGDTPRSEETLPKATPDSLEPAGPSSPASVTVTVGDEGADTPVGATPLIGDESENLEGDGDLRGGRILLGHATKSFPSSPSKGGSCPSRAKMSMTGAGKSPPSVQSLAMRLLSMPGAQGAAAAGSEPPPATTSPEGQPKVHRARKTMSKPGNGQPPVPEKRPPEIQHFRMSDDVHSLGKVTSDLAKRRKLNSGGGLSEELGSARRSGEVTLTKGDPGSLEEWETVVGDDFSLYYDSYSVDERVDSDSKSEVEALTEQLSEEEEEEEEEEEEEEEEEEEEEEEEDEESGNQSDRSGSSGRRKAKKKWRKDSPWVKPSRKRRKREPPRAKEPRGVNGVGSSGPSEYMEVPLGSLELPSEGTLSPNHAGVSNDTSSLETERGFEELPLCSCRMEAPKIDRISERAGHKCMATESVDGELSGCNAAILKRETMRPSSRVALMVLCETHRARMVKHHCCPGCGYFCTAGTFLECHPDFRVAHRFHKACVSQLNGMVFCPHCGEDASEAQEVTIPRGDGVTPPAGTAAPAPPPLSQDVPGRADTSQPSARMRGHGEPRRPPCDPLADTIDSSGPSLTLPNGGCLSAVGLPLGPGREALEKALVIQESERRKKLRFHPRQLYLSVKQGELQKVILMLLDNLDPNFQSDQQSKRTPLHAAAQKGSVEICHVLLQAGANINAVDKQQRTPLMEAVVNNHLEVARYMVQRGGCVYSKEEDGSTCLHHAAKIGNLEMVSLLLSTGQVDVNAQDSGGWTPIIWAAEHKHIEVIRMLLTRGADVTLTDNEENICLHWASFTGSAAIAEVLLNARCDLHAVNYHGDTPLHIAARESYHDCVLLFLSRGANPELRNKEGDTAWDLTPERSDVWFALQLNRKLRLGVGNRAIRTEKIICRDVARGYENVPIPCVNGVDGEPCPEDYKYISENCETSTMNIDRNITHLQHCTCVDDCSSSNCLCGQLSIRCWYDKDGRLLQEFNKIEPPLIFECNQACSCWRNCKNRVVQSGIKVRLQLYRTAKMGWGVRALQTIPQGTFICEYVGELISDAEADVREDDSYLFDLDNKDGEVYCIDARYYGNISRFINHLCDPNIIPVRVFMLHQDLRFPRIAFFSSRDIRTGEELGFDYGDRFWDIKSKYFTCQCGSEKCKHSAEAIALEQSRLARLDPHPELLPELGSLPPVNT
Method in brief: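 Methyltransferase reactions run at room temperature for 2 h (20 nM enzyme, 500 nM biotin-H3K9 peptide, 20 uM SAM) after a 15 min compound preincubation; product detected by AlphaScreen beads and anti-H3K9me1 antibody.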
Further: nearly all actives have a fitted effect of over 75% in size.
On the % scale 0 is the no-effect control and ±100 the full control effect; potency means the concentration at half of the fitted maximal effect; tags describe the fitted curve by direction and shape.

SMILES	Potency	activity, negative = inhibition
CCCCNC(=O)C(CC)Sc1nnc(-c2ccc(F)cc2)c(-c2ccc(F)cc2)n1 (stereo not drawn)	inactive	
Cc1cc(/C=N/O)c(C)n1-c1ccc(Br)cc1	inconclusive: 39.8 µM [inhibitor, single point]	
CCOc1ccc(-c2nnc(SCC(=O)N3CCNC3=O)o2)cc1		inactive: -2.03% [at 12.7 µM]
CC(=O)c1ccc(NC(=O)C2CCN(S(=O)(=O)c3cccc4cccnc34)CC2)cc1	active: 50.1 µM	
COCCn1c(C)cc(C2=NNC(=Nc3ccccc3)SC2)c1C	inconclusive: 8.91 µM [inhibitor, full curve, poor fit]	
Cc1ccccc1-n1nc(-c2ccc(N)cc2)cc1N	inconclusive: 35.5 µM [inhibitor, partial curve, poor fit]	
COc1ccc(NC(=S)c2ccc3ccccc3n2)cc1	active: 7.94 µM	
Cc1ccc(-c2nn(-c3ccccc3)cc2C=O)o1	active: 39.8 µM	
CCOC(=O)Cn1c(=O)oc2cc(S(=O)(=O)Nc3ccc(F)cc3)ccc21	inconclusive: 89.1 µM [inhibitor, single point]	
CCc1ccccc1N(CC(=O)NC1CCCC1)C(=O)CNC(=O)c1cccs1	inactive	
COc1cc(C(c2c(C)[nH][nH]c2=O)c2c(C)[nH][nH]c2=O)cc([N+](=O)[O-])c1O	inconclusive: 50.1 µM [inhibitor, partial curve, poor fit]	
COC(=O)[C@@]1(Cc2ccc(F)cc2)[C@H]2c3cc(C(=O)N(C)C)n(CCc4ccccn4)c3C[C@H]2CN1C(=O)c1ccccc1	inconclusive: 79.4 µM [inhibitor, single point]	
Cc1cccc(NC(=O)Cc2coc3ccc4ccccc4c23)n1	inconclusive: 3.55 µM [inhibitor, single point]	
CCc1nc(N(CC)CC)c2oc3ccccc3c2n1	inactive	
[O-]/[N+](=C\c1ccco1)c1ccc(Cl)cc1	active: 44.7 µM	
COc1ccc(CCNc2oc(COc3ccccc3Cl)nc2C#N)cc1OC	inconclusive: 39.8 µM [inhibitor, single point]	
O=S1(=O)CCC(NC(=S)NCCNC(=S)NC2CCS(=O)(=O)C2)C1 (stereo not drawn)	active: 50.1 µM	
Oc1ccc(/C=C/c2nc(-c3ccccc3O)n(-c3ccccc3)n2)c(O)c1	inconclusive: 0.141 µM [inhibitor, full curve, poor fit]	
CCC(C)Nc1nc(Cl)nc(N(C#N)CN2C(=O)c3ccccc3S2(=O)=O)n1 (stereo not drawn)	inconclusive: 50.1 µM [inhibitor, partial curve, poor fit]	
COCCn1c(-c2cccs2)csc1=Nc1cccnc1	inconclusive: 1 µM [inhibitor, full curve, poor fit]	
CC1(c2ccc(Cl)cc2)NC(=O)N(CC(=O)N2CCN(S(=O)(=O)c3ccccc3)CC2)C1=O (stereo not drawn)	inconclusive: 56.2 µM [inhibitor, partial curve]	
CCOc1ccc(-c2nnn(CC(=O)Nc3ccccc3OC)n2)cc1OCC		inactive: 15% [at 2.33 µM]

SMILES	Potency	activity, negative = inhibition
CC(Sc1nnc(-c2ccccc2)c(-c2ccccc2)n1)C(=O)N1CCc2ccccc21 (stereo not drawn)	inconclusive: 25.1 µM [inhibitor, partial curve, poor fit]	
C/C(=N\NS(=O)(=O)c1ccc([N+](=O)[O-])cc1)c1cccs1	active: 44.7 µM	
CCCCC1=CC2=C(c3ccco3)C(=O)C(C)(OC(=O)c3ccc(OC)cc3)C(=O)C2=CN1C1CCCCC1 (stereo not drawn)	inconclusive: 14.1 µM [inhibitor, single point]	
CCc1ccccc1NC(=O)Cn1nnc(-c2nc(-c3ccncc3)no2)c1N	active: 7.08 µM	
O=C(CCc1ccccc1)Nc1ccc(N2CCOCC2)cc1	inconclusive: 20 µM [inhibitor, single point]	
N=C1C(c2ccccc2)=C(O)CN1CCO	inactive	
O=P(c1ccccc1)(c1ccccc1)c1nc(-c2ccc(Cl)cc2)oc1N1CCOCC1	inconclusive: 39.8 µM [inhibitor, single point]	
CCOc1ccc(NC(=O)CN2CCN(CC(=O)Nc3ccc(N(CC)CC)cc3)CC2)cc1	inconclusive: 1.78 µM [inhibitor, full curve]	
Cc1ccc(C)c(-c2csc(N)c2C(=O)OC(C)C)c1	inconclusive: 79.4 µM [inhibitor, partial curve, poor fit]	
Cc1[nH]nc2c1C1(CCN(Cc3ccccc3)CC1)C(C#N)=C(N)O2		inconclusive: -64.4% [inhibitor]
O=C(NC1(C(F)(F)F)C(=O)Nc2c1c(=O)[nH]c(=O)n2CCc1ccccc1)c1ccc(Cl)cc1 (stereo not drawn)	inactive	
Cc1ccc(NC2=C(N3CCOCC3)C(=O)c3ccccc3C2=O)cc1	inconclusive: 5.62 µM [inhibitor, full curve, poor fit]	
Cc1nnc(-c2cnn(C)c2N)n1Cc1ccccc1F		inactive: 7.06% [at 12.7 µM]
COCCCN1C(=O)C(=O)/C(=C(/O)c2ccc(S(=O)(=O)N3CCCCC3)cc2)C1c1cccc(OC)c1 (stereo not drawn)	active: 44.7 µM	
COc1ccccc1CNC(=O)COC(=O)C1CCN(S(=O)(=O)c2ccc(C)c(C)c2)CC1	inconclusive: 89.1 µM [inhibitor, partial curve, poor fit]	
CN(C)S(=O)(=O)c1ccc(Cl)c(C(=O)NCc2ccco2)c1	inconclusive: 89.1 µM [inhibitor, single point]	
CCOC(=O)c1cc(-c2ccccc2)sc1NC(=O)c1ccc(OC)cc1	inconclusive: 3.98 µM [inhibitor, partial curve, poor fit]	
O=C(c1ccc([N+](=O)[O-])cc1)N1CCSC1c1ccc(Cl)cc1 (stereo not drawn)	inconclusive: 35.5 µM [inhibitor, single point]	
Cc1ccc([N+](=O)[O-])cc1NC(=O)CN(C)CCOc1ccccc1	active: 3.16 µM	
Cc1ccc(OCC(=O)Nc2nnc(SCc3cc(=O)c4ccccc4[nH]3)s2)cc1C	inactive	
COC(=O)c1ccc(N2CCN(C)CC2)c(NC(=O)c2cccnc2)c1	inconclusive: 79.4 µM [inhibitor, single point]	
